According to publication PMC4336329 (PLoS ONE, 2015):
The whole screen tested about 310,000 compounds, of which about 14,000 (4.5%) showed an effect of 50% or more. Effects have a minus sign here. Some of the results follow.

The compounds below were run against human ether-à-go-go-related gene (hERG) potassium channel (human, UniProt Q12809) (assay: primary screen, population patch clamp on CHO cells stably expressing hERG).
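Further: peak tail current of the secondary pulse compared with the same well before compound.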

human ether-à-go-go-related gene (hERG) potassium channel, sequence (Q12809 whole entry, looked up): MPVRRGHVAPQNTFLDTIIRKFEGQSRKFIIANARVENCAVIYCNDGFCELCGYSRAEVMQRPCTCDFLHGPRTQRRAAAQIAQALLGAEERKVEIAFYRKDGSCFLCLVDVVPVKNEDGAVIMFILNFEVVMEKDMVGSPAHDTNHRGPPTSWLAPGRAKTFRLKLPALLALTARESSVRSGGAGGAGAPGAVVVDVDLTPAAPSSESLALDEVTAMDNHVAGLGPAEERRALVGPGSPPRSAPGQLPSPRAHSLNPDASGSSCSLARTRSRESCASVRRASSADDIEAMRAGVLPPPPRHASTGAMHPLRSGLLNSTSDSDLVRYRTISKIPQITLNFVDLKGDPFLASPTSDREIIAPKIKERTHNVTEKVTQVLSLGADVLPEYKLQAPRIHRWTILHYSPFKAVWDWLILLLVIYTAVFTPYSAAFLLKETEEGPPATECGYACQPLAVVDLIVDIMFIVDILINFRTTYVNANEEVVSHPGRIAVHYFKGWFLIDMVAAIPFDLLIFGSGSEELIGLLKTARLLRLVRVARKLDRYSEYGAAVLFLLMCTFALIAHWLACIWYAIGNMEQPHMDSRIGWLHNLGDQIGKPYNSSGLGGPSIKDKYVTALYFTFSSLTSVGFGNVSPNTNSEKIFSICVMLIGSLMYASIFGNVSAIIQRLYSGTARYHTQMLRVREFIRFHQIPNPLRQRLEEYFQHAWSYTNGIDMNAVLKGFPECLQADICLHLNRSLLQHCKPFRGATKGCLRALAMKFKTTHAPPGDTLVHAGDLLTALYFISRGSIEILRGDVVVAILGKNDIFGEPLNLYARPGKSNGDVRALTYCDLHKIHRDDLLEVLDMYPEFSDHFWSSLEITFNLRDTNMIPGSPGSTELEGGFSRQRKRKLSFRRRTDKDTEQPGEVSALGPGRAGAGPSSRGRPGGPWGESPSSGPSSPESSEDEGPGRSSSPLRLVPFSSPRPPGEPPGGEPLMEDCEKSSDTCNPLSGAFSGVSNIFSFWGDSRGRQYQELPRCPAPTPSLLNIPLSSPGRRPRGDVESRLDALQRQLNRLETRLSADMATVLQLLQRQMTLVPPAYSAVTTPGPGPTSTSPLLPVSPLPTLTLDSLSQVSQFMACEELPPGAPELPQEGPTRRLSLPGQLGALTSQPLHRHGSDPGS

SMILES | hERG current change (%, negative = inhibition) at 10uM
COC(=O)C1(C(C[N+](=O)[O-])c2ccco2)C(=O)NCC1c1ccccc1 (stereo not shown) | 7.1%
CC(C)C[C@H](NC(=O)OC(C)(C)C)C(=O)N1CCC(C(=O)N[C@@H](Cc2ccccc2)C(=O)O)CC1 | 6.19%
OCC[C@H]1C[C@@H](O)[C@H](O)[C@@]2(CCCCO2)O1 | -2.89%
O=C(NCCc1ccccc1)N1CCCC(CNS(=O)(=O)Cc2ccccc2)C1 (stereo not shown) | 2.17%
CCOC(=O)N1CCC(=NNc2ccc(S(=O)(=O)N3CCOCC3)cc2[N+](=O)[O-])CC1 | -61.3%
COCCNC(=O)C(C(=O)c1ccc(F)cc1)n1cc(C)ccc1=O (stereo not shown) | 33.4%
CCS(=O)(=O)N1CCC(NC(=O)c2cc(OC)cc(OC)c2)CC1 | 7.08%
CN=C(NC#N)SCC(=O)c1ccc(Cl)cc1Cl | 4.39%
Cc1cc(C)c(S(=O)(=O)NCCc2ccccc2)c(C)c1 | -12%
CC1CCCCN1S(=O)(=O)c1ccc2[nH]c(=O)cc(C(=O)NCCCN3CCCCCC3)c2c1 (stereo not shown) | 17%
COc1ccc(NC(=O)c2ccc(-c3ccc(-c4noc(C)n4)cc3C)cc2)cc1N1CCN(C)CC1.Cl | -76%
CCOc1ccccc1-c1nc(-c2cc3ccc(C)cc3[nH]c2=O)no1 | 2.23%
CCOc1ccccc1C(=O)Nc1cccc(-c2nnc(-c3ccccc3)o2)c1 | -22.7%
Cc1cc(C)c(C)c(OCC(=O)NCCN(C)C)c1 | -13.7%
Cc1ccc(Cl)c(OC(=O)C2CSC3(C)CCC(=O)N23)c1 (stereo not shown) | 7.37%
COc1ccc(C(=O)NCCc2ccccc2)cc1[N+](=O)[O-] | -8.86%
COc1ccc(N(CC(=O)NCCc2ccccc2)C(=O)CCC(=O)Nc2ccccn2)cc1 | -0.661%
COc1ccc(CCN(C)C(=O)c2c(C)noc2C)cc1OC | 6.39%
COc1cccc(OCc2nnc(-c3cccs3)o2)c1 | 1.99%
O=C(CSc1nnc(NC(=O)c2ccccc2[N+](=O)[O-])s1)NCC1CCCO1 (stereo not shown) | 5.83%
COc1ccc(NC2=CC(=O)CC(c3ccc(C)cc3)C2)c(OC)c1 (stereo not shown) | -28.8%
O=C(COC(=O)c1nn(-c2ccccc2)c(=O)c2ccccc12)NC1CCS(=O)(=O)C1 (stereo not shown) | -3.24%

SMILES | hERG current change (%, negative = inhibition) at 10uM
O=c1cccc2n1CC1CC2CN(CC(O)CN2CC3CC(C2)c2cccc(=O)n2C3)C1 (stereo not shown) | 16.4%
O=[N+]([O-])c1ccc(N2CCCCC2)c(-c2nn[nH]n2)c1 | -26.6%
CCCN1CCC(NC(=O)Nc2ccc(OC)c(OC)c2)CC1 | 7.36%
O=[n+]1c2c(n([O-])c3c1CCCC3)CCCC2 | -1.8%
CN(C)N1C(N)=C(C#N)C(c2ccc(F)cc2)C2=C1CCCC2=O (stereo not shown) | -8.49%
C/C(=N\S(=O)(=O)c1ccc(C)cc1)N1CCN(S(=O)(=O)c2ccccc2)C1 | -23.6%
O=C1CCCc2c1cc(C(=O)NC1CCSC1=O)c(=O)n2-c1ccccc1 (stereo not shown) | 8.6%
COc1ccc(C(=O)Nc2cnn(Cc3c(F)cccc3Cl)c2)cc1OC | -2.79%
Clc1ccc(-c2nnc3sc(Cc4cccs4)nn23)cc1 | 4.77%
COc1cccc(CN2CCN(c3cccc(C(F)(F)F)c3)CC2)c1OC | -23.9%
CC(Oc1ccc(F)cc1)C(=O)Nc1ccc(S(=O)(=O)NC2=NCCCCC2)cc1 (stereo not shown) | -17.5%
CCOc1ccc(C(C(=O)NCC2CCCO2)N(Cc2ccccc2)C(=O)c2snc(C(N)=O)c2N)cc1 (stereo not shown) | 5.26%
CC(=O)c1ccc(S(=O)(=O)Nc2ccc(-c3cn4c(n3)SCC4)cc2)cc1 | -9.76%
COc1cc(NC2=CC(=O)CC(C)(C)C2)cc(OC)c1OC | -8.44%
COC(=O)c1cc([N+](=O)[O-])ccc1N1CCN(Cc2ccccc2)CC1 | -72.2%
CC1(C)CC(=O)C=C(c2ccc3ncccc3c2)C1 | -0.907%
Cc1cccc(NC(=O)c2ccc(COc3cccc4ccccc34)o2)n1 | 6.41%
CN(CCO)c1cnccn1 | 22%
COc1cc(/C=N\Nc2ccc([N+](=O)[O-])cn2)ccc1OCC(=O)O | 8.63%
Cc1oc2c(c(C)cc3oc(=O)c(CC(=O)N[C@@H](CCCNC(N)=O)C(=O)O)c(C)c32)c1C | 29.7%
Cc1nn(-c2ccccc2)c2c1C(c1cccnc1)N1C=C(S(=O)(=O)N3CCCCC3)C=CC1=N2 (stereo not shown) | -25.2%
